In PubChem BioAssay AID504845 (National Center for Advancing Translational Sciences (NCATS), 2011):
About 150 (0.038%) of roughly 390,000 compounds were called active. This list was built around the results that the source calls inconclusive (neither active nor inactive); the mix of calls is not that of the screen. The call rests on the fitted dose curve; in most records, active means well fitted inhibition curve with a large enough effect; inconclusive means small, poorly fitted or top-dose-only effect; inactive means no such curve, though single readings can be large or run the other way. Potencies beside an inconclusive call are fits to weak or partial responses and may not hold up.
Further: nearly all actives have a fitted effect of over 75% in size.
Potency means the concentration at half of the fitted maximal effect; tags describe the fitted curve by direction and shape.

These compounds were tested against Regulator of G-protein signaling 4 (Homo sapiens) (UniProt P49798) (assay: Inhibitors of Regulator of G Protein Signaling (RGS) 4: qHTS). Conditions: Transcreener GDP fluorescence polarization, RGS4-accelerated GTP hydrolysis; series mostly up to 114 µM.
UniProt P49798, sequence (P49798 whole entry, looked up): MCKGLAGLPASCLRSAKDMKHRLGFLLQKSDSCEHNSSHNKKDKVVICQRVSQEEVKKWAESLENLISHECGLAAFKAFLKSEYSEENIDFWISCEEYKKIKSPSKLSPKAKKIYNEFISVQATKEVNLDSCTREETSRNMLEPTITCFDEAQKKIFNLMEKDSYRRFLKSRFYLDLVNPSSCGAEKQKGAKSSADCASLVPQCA
Procedure, shortened: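 MLSMR compounds (23 nl, pin-transferred) preincubated 10 min at room temperature with a 500nM (2x) first reagent, then RGS4 at 900nM (2x) plus Transcreener GDP mix added; fluorescence polarization (620/688 nm) read before and after 90 min at 30 °C.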
`CCCCCCCCCCC/C=C\C/C=C\CCCC(=O)O` was tested, and the Potency was inconclusive: 0.752 µM [inhibitor, partial curve, poor fit].
In the case of `Nc1nc(SCC(=O)c2cccc([N+](=O)[O-])c2)n[nH]1`, the Potency is reported as inconclusive: 35.5 µM [inhibitor, partial curve, poor fit].
In the case of `Cc1ccc(-c2csc3nc(C)n(-n4c(C)ccc4C)c(=O)c23)o1`, the Potency is reported as inconclusive: 17.8 µM [inhibitor, full curve, poor fit].
`CCOC(=O)C1=C(CN2CCOCC2)NC(=O)NC1c1cc(C)ccc1C` (stereo unspecified) was tested, and the Potency was “inactive”.
With `O=C(NCc1cccnc1)c1ccc(Cn2c(=S)[nH]c3ccc(Br)cc3c2=O)cc1` the Potency was inconclusive: 50.1 µM [inhibitor, partial curve, poor fit].
For `O=C(O)c1ccc(N2N=C(c3ccccc3)CC2c2ccccc2)cc1` (stereo unspecified), the Potency was “inactive”.
With `CC(=O)Nc1ccc(S(=O)(=O)NNc2cccc(C)c2)cc1` the Potency was inconclusive: 35.5 µM [inhibitor, full curve, poor fit].
With `CC(=O)/C=C/c1ccc(C)o1` the Potency was “inactive”.
For `COc1ccc(NC(C)=O)cc1NC(=O)C1(c2cccs2)CCOCC1`, the Potency was “inactive”.
In the case of `Cc1ccc2c(=O)cc(C(=O)NCc3ccccc3)oc2c1`, the Potency is reported as “inactive”.
In the case of `O=C(c1ccco1)N1CCCN(C(=O)c2ccco2)CC1`, the Potency is reported as inconclusive: 70.8 µM [inhibitor, partial curve, poor fit].
With `COc1ccc(OC)c(NC(=O)c2cccc3c2C(=O)N(C2CCCCC2)C3)c1` the Potency was inconclusive: 50.1 µM [inhibitor, partial curve, poor fit].
With `Cc1cc(=O)oc2cc(OCCc3ccccc3)ccc12` the Potency was “inactive”.
`O=C(NNC(=S)Nc1ccccc1)c1cc(-c2cccnc2)nc2ccccc12` was tested, and the Potency was inconclusive: 50.1 µM [inhibitor, partial curve, poor fit].
`Cc1ccc2cc(CN(C(=O)c3ccco3)c3ccccc3C)c(=O)[nH]c2c1` was tested, and the Potency was “inactive”.
With `CCCCN(CC)CCOc1cccc2ccccc12` the Potency was inconclusive: 8.44 µM [inhibitor, single point].
`Oc1cccc(/C=N\Nc2nncc(-c3ccccc3)n2)c1` was tested, and the Potency was inconclusive: 44.7 µM [inhibitor, partial curve, poor fit].
With `CCOc1cc(/C=N/Nc2cccc(C(=O)O)c2)ccc1OCC(=O)N1CCCCC1` the Potency was inconclusive: 100 µM [inhibitor, single point].
For `CCn1c(SCC(=O)Nc2ccc3c(c2)c2ccccc2n3CC)nnc1-c1ccco1`, the Potency was inconclusive: 11.2 µM [inhibitor, full curve, poor fit].
In the case of `CCc1ccc(NC(=O)C(Cc2ccccc2)NS(=O)(=O)c2ccc3c(c2)c(=O)n(C)c(=O)n3C)cc1` (stereo unspecified), the Potency is reported as “inactive”.
For `O=c1[nH]c2ccccc2c(O)c1-c1ccccc1[N+](=O)[O-]`, the Potency was inconclusive: 20 µM [inhibitor, full curve, poor fit].
With `O=C(NCc1cccc(Cl)c1)c1ccc2nc(N3CCOCC3)sc2c1` the Potency was inconclusive: 79.4 µM [inhibitor, partial curve, poor fit].
In the case of `CCOC(=O)c1sc(=S)n(C)c1NC(=O)c1ccc(C(C)(C)C)cc1`, the Potency is reported as inconclusive: 39.8 µM [inhibitor, partial curve, poor fit].
With `N#Cc1ccc(N2Cc3ccccc3/C2=N/C(=O)Nc2ccc(Cl)cc2)cc1` the Potency was inconclusive: 79.4 µM [inhibitor, partial curve, poor fit].
In the case of `O=C(O)c1ccc2c(c1)N(Cc1ccccc1)C(=O)c1ccccc1S2=O` (stereo unspecified), the Potency is reported as inconclusive: 50.1 µM [inhibitor, partial curve, poor fit].
In the case of `Cc1ccnc(SCC(=O)c2ccc([N+](=O)[O-])cc2)n1`, the Potency is reported as “inactive”.
In the case of `Cc1ccc(-c2nc3ncccn3c2Nc2ccc3c(c2)OCO3)o1`, the Potency is reported as inconclusive: 89.1 µM [inhibitor, partial curve, poor fit].
`CN(CC(=O)Nc1ccccc1Cl)C(=O)c1ccc(COc2ccccc2)cc1` was tested, and the Potency was “inactive”.
`Cc1cc2c(cc3c(SCC(=O)Nc4ccc(Cl)cc4F)nncn32)o1` was tested, and the Potency was inconclusive: 79.4 µM [inhibitor, partial curve, poor fit].
With `COc1cccc(-c2nc(-c3ccccc3)c(-c3ccccc3)[nH]2)c1OCC(=O)O` the Potency was “inactive”.
In the case of `O=S(=O)(NC(=NCCc1ccc(Cl)cc1)c1ccccc1Cl)c1cccs1`, the Potency is reported as inconclusive: 50.1 µM [inhibitor, partial curve, poor fit].
With `O=C(Sc1n[nH]c(=O)[nH]c1=O)c1ccccc1` the Potency was inconclusive: 44.7 µM [inhibitor, partial curve, poor fit].
`CN=C(c1ccco1)n1c(=S)nc(-c2ccco2)n(C)c1=S` was tested, and the Potency was inconclusive: 50.1 µM [inhibitor, partial curve, poor fit].
`Cc1nn(C)cc1C(=O)Nc1ccc2c(c1)OCCO2` was tested, and the Potency was inconclusive: 100 µM [inhibitor, single point].
For `CC(=O)N1CCN(C(=O)c2ccc(-n3c(C)ccc3C)cc2)CC1`, the Potency was “inactive”.
With `O=C(CSc1n[nH]c(-c2cccnc2)n1)Nc1ccccc1` the Potency was “inactive”.
For `Cn1cccc1C(=S)N=P(C1CCCCC1)(N1CCOCC1)N1CCOCC1`, the Potency was “inactive”.
`Cc1[nH][nH]c(=O)c1C(c1ccc(-c2cccc(Cl)c2)o1)c1c(C)[nH][nH]c1=O` was tested, and the Potency was inconclusive: 44.7 µM [inhibitor, partial curve, poor fit].
In the case of `OCCN1CCN(C2Cc3cc(Cl)ccc3Sc3ccc(Cl)cc32)CC1` (stereo unspecified) (tested in a mixture with another compound), the Potency is reported as inconclusive: 100 µM [inhibitor, single point].
In the case of `COc1ccc(C2(CNC(=O)C(=O)Nc3ccc(C)cc3)CCOCC2)cc1`, the Potency is reported as inconclusive: 28.2 µM [inhibitor, full curve, poor fit].
`O=S(=O)(c1ccc(S(=O)(=O)N(Cc2ccco2)Cc2ccccc2Cl)cc1)N1CCCC1` was tested, and the Potency was “inactive”.
In the case of `COc1cccc(-c2csc(N3CCN(CC(=O)NNC(=O)c4ccc(Cl)cc4)CC3)n2)c1`, the Potency is reported as “inactive”.
With `COC(=O)C(=Cc1ccccc1[N+](=O)[O-])C(=O)OC` the Potency was “inactive”.
`CC(C)(C)C(=O)NCC12C=CC(O1)C1C(=O)N(c3ccccc3)C(=O)C12` (stereo unspecified) was tested, and the Potency was inconclusive: 39.8 µM [inhibitor, partial curve, poor fit].
`c1ccc(-c2nn3c(Cn4nnc5ccccc54)nnc3s2)cc1` was tested, and the Potency was inconclusive: 17.8 µM [inhibitor, full curve, poor fit].
In the case of `COCCCNC(=S)N(CCO)Cc1cc2cc3c(cc2[nH]c1=O)OCO3`, the Potency is reported as inconclusive: 79.4 µM [inhibitor, partial curve, poor fit].
With `CN(CC(=O)NCC(c1ccco1)N1CCCCC1)S(=O)(=O)c1ccc(Cl)cc1` (stereo unspecified) the Potency was inconclusive: 89.1 µM [inhibitor, single point].
`COc1ccc(NC(=O)N(C)C[C@H]2Oc3ccc(NC(=O)NC(C)C)cc3C(=O)N([C@H](C)CO)C[C@@H]2C)cc1` was tested, and the Potency was “inactive”.
For `O=S(=O)(c1ccc(Oc2ccc3c(c2)OCO3)c(S(=O)(=O)N2CCOCC2)c1)N1CCOCC1`, the Potency was “inactive”.
With `FC(F)(F)c1ccccc1/C=N/n1c(C2CCCCC2)n[nH]c1=S` the Potency was inconclusive: 79.4 µM [inhibitor, partial curve, poor fit].
`CC1(C)Cc2c(C#N)c(N)sc(=S)c2CS1` was tested, and the Potency was inconclusive: 79.4 µM [inhibitor, partial curve, poor fit].
In the case of `O=C1NC(=S)/C(=C\c2ccc(-c3ccccc3Cl)o2)S1`, the Potency is reported as inconclusive: 89.1 µM [inhibitor, partial curve, poor fit].
For `COc1ccccc1C(=O)N1c2ccccc2Sc2ccccc21`, the Potency was “inactive”.
With `CC1(C)Cc2nc3oc4c(N(CCO)Cc5ccccc5)ncnc4c3cc2CO1` the Potency was “inactive”.
`COc1cc(C2C(C(=O)c3cc4ccccc4o3)=C(O)C(=O)N2c2cc(C)on2)cc(OC)c1OC` (stereo unspecified) was tested, and the Potency was inconclusive: 89.1 µM [inhibitor, single point].
In the case of `COc1ccc(C2NC(=O)C(C#N)=C(S)N2c2ccccc2)cc1OC` (stereo unspecified), the Potency is reported as inconclusive: 35.5 µM [inhibitor, full curve, poor fit].
`CC(C)(C)C(=O)OCOC(=O)[C@@H]1N2C(=O)[C@@H](N=CN3CCCCCC3)[C@H]2SC1(C)C` was tested, and the Potency was “inactive”.
For `Cc1ccc(NC(=O)C2CCCN2C(=O)OCc2ccccc2)cc1F` (stereo unspecified), the Potency was inconclusive: 39.8 µM [inhibitor, partial curve, poor fit].
In the case of `CC(C)(C)C(=O)Nc1cc(S(=O)(=O)N2CCCCC2)ccc1N1CCCCC1`, the Potency is reported as inconclusive: 89.1 µM [inhibitor, single point].
With `O=C(Cc1ccsc1)Nc1ccccc1F` the Potency was inconclusive: 89.1 µM [inhibitor, single point].
`CCOC(=O)C1(CCC(=O)OCc2ccccc2)CCCCC1=O` (stereo unspecified) was tested, and the Potency was inconclusive: 89.1 µM [inhibitor, single point].
`Cc1ccc(-n2c(N)c(-c3nc4ccccc4n3C)sc2=S)cc1` was tested, and the Potency was inconclusive: 89.1 µM [inhibitor, partial curve, poor fit].
For `COC(=O)c1c(-c2ccc3ccccc3c2)csc1NC(=O)Cc1ccc(OC)c(OC)c1`, the Potency was inconclusive: 79.4 µM [inhibitor, partial curve, poor fit].
In the case of `O=C(Cn1nc2ccccc2n1)N/N=C/c1cc([N+](=O)[O-])ccc1O`, the Potency is reported as inconclusive: 44.7 µM [inhibitor, partial curve, poor fit].
With `CCOC(=O)COn1c(=O)c(-c2cc3ccccc3o2)[n+]([O-])c2ccccc21` the Potency was “inactive”.
With `Cc1ccc(Nc2sc(C(=O)c3ccccc3)c(N)c2C(N)=O)cc1` the Potency was inconclusive: 100 µM [inhibitor, partial curve, poor fit].
